# PubChem BioAssay AID485294 (National Center for Advancing Translational Sciences (NCATS), 2010)
# Hit rate of the full screen: of about 370,000 compounds, about 150 (0.041%) were called active. The shares of active, inactive and inconclusive entries below differ from those in the screen. The call rests on the fitted dose curve; in most records, active means well fitted inhibition curve with a large enough effect; inconclusive means small, poorly fitted or top-dose-only effect; inactive means flat fitted curve, though single readings scatter. No potency is given beside an inconclusive call; the fits are too rough.
# Molecular target: Beta-lactamase (Escherichia coli (strain K12)) (UniProt P00811)
# UniProt P00811, sequence (P00811 whole entry, looked up): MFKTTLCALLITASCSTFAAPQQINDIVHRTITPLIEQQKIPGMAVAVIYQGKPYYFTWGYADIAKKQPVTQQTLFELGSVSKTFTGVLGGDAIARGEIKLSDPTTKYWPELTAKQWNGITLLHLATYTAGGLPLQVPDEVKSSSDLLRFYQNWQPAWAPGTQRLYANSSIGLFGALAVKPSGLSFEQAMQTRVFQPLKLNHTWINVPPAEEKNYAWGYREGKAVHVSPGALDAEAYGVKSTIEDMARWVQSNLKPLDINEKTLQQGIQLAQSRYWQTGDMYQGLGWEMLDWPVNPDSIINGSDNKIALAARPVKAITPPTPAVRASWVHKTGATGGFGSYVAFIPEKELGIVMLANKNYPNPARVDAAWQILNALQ
# Assay: qHTS Inhibitors of AmpC Beta-Lactamase (assay with detergent); further: nearly all actives have a fitted effect of over 25% in size
# Details: AmpC hydrolysis of nitrocefin, absorbance 480 nm, 0.01% Triton; series mostly up to 114 µM
# Summary of the method: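 20 mM phosphate pH 7.0 + 0.01% (detergent screen) or 0.0001% Triton X-100; 5.3 nM AmpC reagent; cpd preinc 15 min RT; nitrocefin (800 uM stock) to start; A480 q20 s × 4 min; Activity was normalised to no-enzyme and no-compound control wells.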
# Potency means the concentration at half of the fitted maximal effect; tags describe the fitted curve by direction and shape.
row,SMILES,Potency
1,Cc1ccc(N2CC(C(=O)N/N=C/c3sccc3C)CC2=O)cc1 (configuration not stated),inactive
2,CCC(Sc1ccc2nnc(-c3cccnc3)n2n1)C(=O)OC (configuration not stated),"inconclusive [inhibitor, full curve, poor fit]"
3,CCOC(=O)N1CCC(NC(=O)c2ccc(CNS(=O)(=O)c3ccc(F)cc3)cc2)CC1,"inconclusive [inhibitor, single point]"
4,CCN(CC)CCNC(=O)c1c(O)c2cccc3c2n(c1=O)CCC3,"inconclusive [inhibitor, full curve, poor fit]"
5,CC(C)OCC(O)CN1CCN(CCN2C(=O)c3cccc4cccc(c34)C2=O)CC1 (configuration not stated),"inconclusive [inhibitor, partial curve, poor fit]"
6,Cn1c(=O)c2cc(S(=O)(=O)NCCC(=O)Nc3ccccc3F)ccc2n(C)c1=O,"inconclusive [inhibitor, full curve, poor fit]"
7,CC(C)(C)NC(=O)CN(C(=O)CS(=O)CC(=O)Nc1ccc(F)cc1)c1ccc(F)c(Cl)c1 (configuration not stated),"inconclusive [inhibitor, full curve]"
8,Cc1nn2c(COc3ccc(NC(=O)c4ccccc4Cl)cc3)nnc2c2ccccc12,inactive
9,CCCCC(c1nnnn1C1CCCC1)N1CCN(C(=O)c2ccco2)CC1 (configuration not stated),"inconclusive [inhibitor, partial curve, poor fit]"
10,COc1ccc(-n2c(C)nc3c(cnn3-c3ccc(C)c(C)c3)c2=O)cc1,"inconclusive [inhibitor, full curve, poor fit]"
11,CNC(=O)c1ccsc1NC(=O)CCS(=O)(=O)c1ccc(F)cc1,"inconclusive [inhibitor, full curve, poor fit]"
12,O=C(Nc1nnc(N2CCCCCC2)s1)Nc1ccccc1C(F)(F)F,inactive
13,OC(Cn1cncn1)c1ccc(Cl)cc1 (configuration not stated),"inconclusive [inhibitor, full curve]"
14,CC(=O)c1ccc(N2CCN(C(=O)c3ccc(OCc4c(C)noc4C)cc3)CC2)cc1,"inconclusive [inhibitor, full curve, poor fit]"
15,CCCC[C@H]1COCCS(=O)(=O)N1Cc1ccccc1F,"inconclusive [inhibitor, partial curve, poor fit]"
16,CC(C)n1nc(C(=O)Nc2nc3ccc(S(C)(=O)=O)cc3s2)c2ccccc2c1=O,"inconclusive [inhibitor, full curve, poor fit]"
17,Cc1ccc2nc(NC(=O)C3CSC4(C)CCC(=O)N34)sc2c1 (configuration not stated),"inconclusive [inhibitor, full curve, poor fit]"
